In PubChem BioAssay AID1508624 (National Center for Advancing Translational Sciences (NCATS), 2021):
The campaign covered roughly 48,000 compounds. About 120 (0.25%) were called active. Roughly 4% stayed inconclusive and do not appear here. Calls come from the whole dose curve; as a rule, active = well fitted activation curve with a large enough effect; inconclusive = small, poorly fitted or top-dose-only effect, or another doubt; inactive = no such curve, though single readings can be large or run the other way. This is one part of the list.

Test: Primary qHTS for Identification of Small Molecule Activators of Huntingtin-Antisense Promoter Activity; note: nearly all actives have a fitted effect of over 55% in size
Details: HEK293 HTT-AS promoter firefly luciferase reporter, 24 h; series mostly up to 57.5 µM; activity change, positive = activation: at the top concentration
Summary of the method: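 Firefly luciferase readout (Dual-Glo, 10 min RT) after 24 h, 37 °C compound exposure (final up to 57.5 uM) of HEK293 reporter cells cultured 24 h beforehand; PTC124 at 50 uM final as control inhibitor; activity scaled vehicle 0%, zero RLU -100%.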

Activity change, positive = activation, inactive:
Cc1ccc(NC(=O)Cn2ncn3c(cc4ccccc43)c2=O)cc1F -14.9%
Cc1nc2sccn2c(=O)c1S(=O)(=O)Nc1ccc(N2CCOCC2)c(Cl)c1 -27.4%
COC(=O)c1c(SCC(=O)Nc2cc(OC)cc(OC)c2)[nH]c2ccc(C)cc2c1=O -6.48%
O=C(CCC(=O)N1CC2CCCN2c2ccccc21)NCc1ccc(Cl)cc1 (stereo unspecified) -26.8%
CCC1CCC(C(=O)NC(C(=O)Nc2cccc(OC)c2)C(C)C)CC1 (stereo unspecified) 0.288%
CCOc1ccc(CNCc2c(C(=O)O)c(C)n(Cc3cccc(OC)c3)c2C)cc1OC -19.4%
Cc1cc(CN2CCN(c3ccccc3F)CC2)cs1 -0.112%
Cc1nc2nc(CNC(=O)OC(C)(C)C)nn2c(C)c1CCC(=O)NCc1ccc(F)cc1 -10.1%
CCc1ccc(C(=O)c2cn(CC(=O)Nc3ccc4c(c3)OCO4)c3ccc(OC)cc3c2=O)cc1 -23.7%
Cn1c(C(=O)Nc2cccc(C(F)(F)F)c2)cc2c(=O)n3ccccc3nc21 -12.9%
CCOc1ccc(NC(=O)C2CCC(CNS(=O)(=O)c3ccc(Br)s3)CC2)cc1 (stereo unspecified) -18.3%
COc1ccc(OC)c(CNC(=O)C(C)n2c(C)c3cnn(-c4ccccc4)c(=O)c3c2C)c1 (stereo unspecified) -21%
CC1=C(c2ccc(C)c(C)c2)S(=O)(=O)N=C1N1CCC(C(=O)N2CCC(C)CC2)CC1 -11%
CCOc1cc(/C=C(\C#N)C(=O)NCC2CCCO2)ccc1O (stereo unspecified) 3.86%
Cc1ccccc1OCc1ccc(-c2nc(C#N)c(NCc3cccnc3)o2)o1 -30.3%
Cc1ccccc1CNC(=O)CCCn1c(=O)c2cccn2c2cccnc21 -6.06%
Cc1ccc(N2CC(NC(=O)c3cccs3)CC2=O)cc1C (stereo unspecified) -14%
COc1cc(NC(=O)c2cccc3c2C(=O)N(C2CCCCC2)C3)cc(OC)c1OC -29.6%
Fc1ccc([C@@H]2CCNC[C@H]2COc2ccc3c(c2)OCO3)cc1
Oc1ccccc1-c1nc(/C=C/c2ccccc2Cl)nn1-c1ccccc1 6.11%
CCOC(=O)c1c(-c2ccc(C)cc2)csc1NC(=O)c1cc(=O)c2ccc(C)cc2o1 1.09% [at 11.5 µM, percent change from vehicle, -100% = no light]
CSc1cccc(Nc2cc(C(=O)NCCCN(C)c3ccccc3)c3ccccc3n2)c1 -32%
COc1ccc(NC(=O)Cn2c(=O)n(Cc3nc(-c4ccccc4)no3)c(=O)c3ccccc32)cc1Cl -35.5%
COc1ccc(/C=C/C(=O)Nc2nc3n(n2)C(c2ccc(F)cc2)C=C(c2ccccc2)N3)cc1 (stereo unspecified) -25.8%
COc1cc(C(=O)n2nc(C)c(Sc3ccc(Cl)cc3)c2C)cc(OC)c1OC -17.1%
CCCCCCCCCCC(CO)CCCCCCCC (stereo unspecified) -0.279%
NC(CO)C(=O)NNCc1ccc(O)c(O)c1O (stereo unspecified)
COc1ccc(NC(=O)C2CCCN(S(=O)(=O)c3ccc(Br)s3)C2)cc1 (stereo unspecified) -25.4%
CC(=O)N1CCc2cc(S(=O)(=O)NC(C(=O)Nc3ccc(C)cc3C)C(C)C)ccc21 (stereo unspecified) -22.6%
CCOc1ccc(C(=O)c2oc3ccccc3c2NC(=O)Cc2coc3ccc(CC)cc23)cc1 -4.99%
O=C(Cc1ccc(F)cc1)Nc1nnc2n1CCS2 -9.03%
Cc1cccc(NC(=O)N2CCC3(CC2)Oc2ccccc2C(=O)N3Cc2ccccc2F)c1C -6.99%
COc1cccc(C(=O)Nc2c(C(=O)N3CCN(c4ccc(F)cc4)CC3)oc3ccccc23)c1 -26%
CCc1ccc(CNC(=O)c2c(C)oc3ncnc(N4CCOCC4)c23)cc1 -30%
CN(C)CCCN1c2ccccc2CCc2ccccc21 -21.3%
C[C@H]1COc2c(N3CCN(C)CC3)c(F)cc3c(=O)c(C(=O)O)cn1c23 -1.43%
CCc1cccc(-n2c(=O)c3cccnc3n2CC(=O)Nc2ccc(F)c(C)c2)c1 -18.1%
CCc1ccc2occ(CC(=O)Nc3ccccc3C(F)(F)F)c2c1 -16.3%
CC(C)c1ccc(Nc2cc(C(=O)NC3CCCCC3)c3ccccc3n2)cc1 -5.7%
Cc1cccc(N2CCN(CCNC(=O)Nc3ccc(Cl)cc3)CC2)c1C -55.2%
COc1ccccc1NC(=O)CSc1nc(-c2ccc(C(C)(C)C)cc2)c(C#N)c(=O)[nH]1 -10.6%
CCOc1ccccc1-n1nnc(-c2nsc(NC(=O)c3ccc(C)cc3)n2)c1C -38.6%
CCc1ccccc1OCC(=O)Nc1ccc(S(=O)(=O)Nc2nc(C)cc(C)n2)cc1 -10.1%
CCCN(C(=O)c1cc2c(=O)[nH]c3ccc(C)cc3c2s1)c1ccc(CC)cc1 -9.82%
CCCC(=O)OCOC(=O)C1=C(C)NC(C)=C(C(=O)OC)C1c1cccc(Cl)c1Cl (stereo unspecified) -5.83%
CCOc1ccc(CNS(=O)(=O)c2ccc3c(c2)CCCN3C(C)=O)cc1OC -30.6%
CCOC(=O)C1CCCN(C(=O)c2nn(-c3ccc(C)cc3)c(=O)n(C)c2=O)C1 (stereo unspecified) -5.17%
CCc1nnc2c(N3CCN(c4cc(Cl)ccc4C)CC3)nc3ccccc3n12 2.71%
COc1ccc(C2=NC(c3ccncc3)=Nc3ccc(OC)cc3N2)cc1 4.27%
COc1ccc(-c2noc(N3CCC(C(=O)N4CCN(c5cccc(C)c5C)CC4)CC3)n2)cc1 -18.1%
COc1ccc(C2=C(C)C(=O)N(Cc3ccc(C(=O)NCc4cccc(C)c4)cc3)S2(=O)=O)cc1 -35.8%
COc1ccc2c(c1)c(N1CCCC1=O)c(C(=O)Nc1ccccc1C(F)(F)F)n2C -2.97%
CCOc1ccc(NC(=O)CCNS(=O)(=O)c2cccc3nonc23)cc1 -2.2%
COc1ccc(-c2noc(COc3cc(C)ccc3C)n2)cc1OC -8.44%
O=C(COc1ccc(F)cc1)Nc1ccc2nc(SCC(=O)N3CCOCC3)sc2c1 -36.1%
CC(C)c1ccc(N2C(=O)CSC23C(=O)N(C)c2ccccc23)cc1 (stereo unspecified) -11%
O=C1[C@@H]2CSC(c3ccc(Cl)cc3)N2C(=O)N1c1ccccc1 (stereo partly specified) -22%
CCOC(=O)c1c(NC(=O)c2cc(-c3cccc(OC)c3)on2)sc2c1CCCC2 -3.51%
COc1cccc(CNC(=O)Cc2c(C(=O)O)c(C)cn2C)c1 -2.3%
COc1ccc(CC(=O)NCC(c2cccs2)S(=O)(=O)c2ccc(C)cc2)cc1 (stereo unspecified) -16.5%
CCc1ccc(NC(=O)Cn2c(=O)n(Cc3ccco3)c(=O)c3oc4ccccc4c32)cc1 -6.22%
CC(C)c1ccc(NC(=O)CN2C(=O)COc3ccc(S(=O)(=O)N4CCCCCC4)cc32)cc1 -26%
O=C(NCc1cccs1)c1ccc(CSc2nc3cccnc3n2Cc2ccccc2F)cc1 -19.3%
Cc1oc(-c2ccccc2Cl)nc1CSc1nc2ncccc2[nH]1 -6.55%
O=C(NCc1cccc(Cl)c1)c1ccc2nc(N3CCCCC3)sc2c1 -38%
CCOC(=O)c1c(C)n(-c2ccccc2)c2ccc(OC(=O)c3cccc(OC)c3OC)cc12 -25.9%
CCN(CC)C(=O)c1ccc(Nc2nnc(-c3ccc(C)c(S(=O)(=O)NC)c3)c3ccccc23)cc1 -44.6%
CCc1cccc(N2C(=O)CSC23C(=O)Nc2ccccc23)c1 (stereo unspecified) -11.6%
COc1ccc(S(=O)(=O)Nc2c(C)nc3nc(C)[nH]n3c2=O)cc1 -15.7%
CCOc1ccccc1CNC(=O)c1c(C)oc2ncnc(N3CCOCC3)c12 -7.16%
CCOc1ccc(NC(=O)CSc2ccc(-c3sc(-c4ccccc4)nc3C)nn2)cc1 6.56%
CCOC(=O)c1oc2ccc(S(=O)(=O)n3nc(-c4cc(OC)c(OC)c(OC)c4)cc3N)cc2c1C -20.4%
CCOC(=O)CNC(=O)Nc1cc(C(=O)NCc2ccccc2OC)ccc1N1CCCC1 12.1%
Cc1ccccc1C(=O)NC1(C(F)(F)F)N=C(c2ccccc2)N(C2CCCCC2)C1=O (stereo unspecified) -16.1%
CC(C)C(=O)Nc1ccccc1OCc1cc(=O)n2ccccc2n1 -11.8%
CCC(Oc1ccccc1F)C(=O)N1CCC(c2nc3ccccc3s2)CC1 (stereo unspecified) -24.8%
CCOc1ccc(NC(=O)C2CCCN(c3ccc(Sc4ccc(C)cc4)nn3)C2)cc1 (stereo unspecified) -1.76%
COC(=O)C(CCSC)NC(=O)c1cc2c(n(-c3ccc(Cl)cc3)c1=O)CCCC2=O (stereo unspecified) -7.82%
O=C(NC(=O)c1ccccc1)Nc1ccc(-c2cc(C(F)(F)F)nn2-c2ccccc2)cc1 -5.18%
COc1ccc(Cl)cc1NC(=O)C1CCCN(c2ncnc3onc(C)c23)C1 (stereo unspecified) -24.7%
COc1ccccc1CCNC(=O)C1CCN(c2nnc(-n3cccc3CNc3ccc(C)cc3)s2)CC1 -22.7%
COc1ccc(Cl)cc1NC(=O)c1cn(C2CCCCC2)c(=O)c2c1c1ccccc1n2C -7.31%
Cc1c(C(=O)N(Cc2ccc(N(C)C)cc2)CC2CCCO2)oc2ccc(Cl)cc12 (stereo unspecified) -14%
CCOc1ccc(Nc2nc3cc(Cl)c(Cl)cc3nc2-n2nc(C)cc2C)cc1 -5.37%
COc1ccc(N2CCN(c3csc4ccc(Cl)cc4c3=O)CC2)cc1 5.61%
COc1ccc(CNC(=O)c2cc(-c3ccc(C)cc3)nc3n[nH]c(-c4ccc(Br)cc4)c23)cc1 11.8%
Cc1ccc(C)c(S(=O)(=O)c2nnn3c2nc(NC(C)C)c2sccc23)c1 -49.4%
O=C(O)c1ccc2nc(-c3cc4cccc(O)c4oc3=O)[nH]c2c1 -61.9%
NS(=O)(=O)c1ccc(NC(=O)CN2C(=O)COc3ccc(Cl)cc32)cc1 -9.32%
CCc1ccccc1Nc1nn2c(=O)c3ccc(C(=O)NCc4ccccc4OC)cc3nc2s1 -25.5%
O=C1OC(CN2CCOCC2)CN1/N=C/c1ccc([N+](=O)[O-])o1 (stereo unspecified) -3.63%
CCOC(=O)c1c(C)[nH]c(C)c1S(=O)(=O)N1CCCC(C(=O)Nc2ccc(C)cn2)C1 (stereo unspecified) -2.66%
COc1ccccc1Cn1cc(C(=O)c2ccc(C)cc2)c(=O)c2cc(C)ccc21 -0.327%
Cc1cnn(C)c1C(=O)Nc1cc(Nc2ccc3c(C=Cc4ccccn4)n[nH]c3c2)ccc1F -87.1%
CCN(c1ccccc1)c1ccc2cc(S(=O)(=O)N3CCCC3)ccc2n1 0.558%
Cc1ccc(-n2nc(CO)c(C(=O)NCCCc3ccccc3)n2)cc1C 2.46%
